Our source for the self-cleavage values is the RNAGym collection of RNA variant scans (doi:10.7554/elife.90254).

Read counts are not given, so values of variants with three or more changes are uncertain.

To fix the notation:
B1: LINE1-full (parent)
chain: UACGUAGGUGGUUUUCCCCUGAUAGUGCUAAGGGGGCCUGGAAGUUUGGACUGGGCAGAGCUCAACACAGCGUGGCAAAGUGGCUGUGGCUAGACUGCCUCUCUGGAUUCCUCGUCACUCAGCAGGGCAUCUCUGAGAGAAAUGCC

Variants of B1 are the subject of the series. Description: self-cleavage, relative activity (ratio to wild type); higher = more cleavage; in vitro, sequencing; the parent is a self-cleaving ribozyme.
For UACGUAGGUGGUCUUCCCCUGAUAGUGCUAAGGGGGCCUGGAAGUUUGGACUGGGCAGAGCUCAACACGGCGUGGCAAAGUGGCUGUGGCUAGACUGCCUCUCUGGAUUCCUCGUCACUCAGCAGGGCAUCUCUGAGAGAAGUGCC, the self-cleavage was found to be 0.39.

Turning to UACGUAGGUGGUCUUCCCCUGAUAGUGCUAAGGGGGCCUGGAAGUUUGGACUGGGCAGAGCUCAACACAGCGUGGCAAAGUGGCUGUGGCUAGACUGCCUCUCUGGGUUCCACGUCACUCAGCAGGGCAUCUCUGAGAGAAAUGCC, the self-cleavage turned out to be 1.47.

As for UACGUAGGUGGUCUUCCCCUGAUAGUGCUAAGGGGGCCUGGAAGUUUGGACUGGGCUGAGCUCAACACAGCGUGGCAAAGUGGCUGUGGCUAGACUGCCUCUCGGGAUUCCUCGUCACUCGGCAGGGCAUCUCUAAGAGAAAUGCC, the self-cleavage was 0.

UACGUAGGUGGUCUUCCCCUGAUAGUGCUAAGGGGGCCUGGAAGUUUGGACUGGGCAGAGCUCAACACAGCGUGGCAAAGUGGCUGUGGCUGGACUGCCUCUCUGGAUUCCUCGUCACUCUGCAGGGCAUCUCUGAGAGAAAUGCC: the self-cleavage stood at 0.2.

Take UACGUAGGUGGUCUUCCCCUGAUAGUGCUAAGGGGGCCUGGAAGUUUGGACUGGGCAGAGCUCAACACAGCGUGGCAAGGUGGCUGUGGCUAGACUGCCUCUCUGGAUUCCUCGUCACUCAGCAGGGCAUCUCUGAGAGGAAUGCC: the self-cleavage is 1.16.

As for UACGUAGGUGGUCUUCCCCUGAUAGUGCUAAGGGGGCCUGGAAGUUUGGACUGGGCAGAGCUCAGCACAGCGUGGCAAAGUGGCUGUGGCUAGACUGCCUCUCUGGAUUCCUCGUCACUCAGCAGGGCAUCUCUGAGGGAAAUGCC, the self-cleavage came out at 0.07.

UACGUAGGUGGUCUUCCCCUGAUAGUGCUAAGGGGGCCUGGAAGUUUGGACUGGGCAGAGCUCAACACAGCGUGGCAAAGUGGCUGUGGCUAGACUGCCUCUCUGGAUUCCUCGUCACUCAGCUGGGCAUCUCUGAGGGAAAUGCC: the self-cleavage was 1.06.

With UACGUAGGUGGUCUUCCCCUGAUAGUGCUAAGGGGGCCUGGAAGUUUGGACUGGGCAGAGCUCAACACAGCGUGGCGAAGUGGCUGUGGCUAGACUGCCUCUCUGGAUUCCUCGUCACUCAGCAGGGCCUCUCUGAGAGAAAUGCC, the self-cleavage is 2.38.

With UACGUAGGUGGUCUUCCCCUGAUAGUGCUAAGGGGGCCUGGAAGUUUGGACUGGGCAGAGCUCAACACUGCGUGGCAAAGUGGCUGUGGCUAGACUGCCUCUCUGGAUUCCUCGUCACUCAGCAGGGCAACUCUGAGAGAAAUGCC, the self-cleavage was 0.02.

For UACGUAGGUGGUCUUCCCCUGAUAGUGCUAAGGGGGCCUGGAAGUUUGGACUGGGCAGAGCUCAACGCAGCGUGGCAAAGUGGCUGUGGCUAGACUGCCUCUCCGGAUUCCUCGUCACUCGGCAGGGCAUCUCUGAGAGAAAUGCC, the self-cleavage came to 0.

For the variant UACGUAGGUGGUCUUCCCCUGAUAGUGCUAAGGGGGCCUGGAAGUUUGGACUGGGCAGAGCUCAACACAGCGUGGCAGAGUGGCUGUGGCUAGACUGCCUCUCUGGAAUCCCCGUCACUCAGCAGGGCAUCUCUGAGAGAAAUGCC, the self-cleavage worked out at 1.5.

For the variant UACGUAGGUGGUCUUCCCCUGAUAGUGCUAAGGGGGCCUGGAAGUUUGGACUGGGCAGAGCUCAACCCAGCGUGGCAAAGUGGCUGUGGCUAGACUGCCUCUCUGGAUUCCUCGUCACUCAGCAGGACAUCUCUGAGAGAAAUGCC, the self-cleavage worked out at 0.09.

Regarding UACGUAGGUGGUCUUCCCCUGAUAGUGCUAAGGGGGCCUGGAAGUUUGGACUGGGCAGAGCUCAACACAGCGUGGCGAAGUGGCUGUGGCUAGACUGCCUCACUGGAUUCCUCGUCACUCAGCAGGGCAUCUCUGAGAGAAAUGCC, the self-cleavage was 0.84.

As for UACGUAGGUGGUCUUCCCCUGAUAGUGCUAAGGGGGCCUGGAAGUUUGGACUGGGCAGAGCUCGACACAGCGUGGCAAAGUGGCUGUGGCUAGACUGCCUCUCUGGAUUCCUCGUCACUCAGCAGGGCAUCUCUGAGAAAAAUGCC, the self-cleavage turned out to be 0.19.

With UACGUAGGUGGUCUUCCCCUGAUAGUGCUAAGGGGGCCUGGAAGUUUGGACUGGGCAGAGCUCAACACAGCGUGGCAAAGUGGCUGUGGCUGGACAGCCUCUCUGGAUUCCUCGUCACUCAGCAGGGCAUCUCUGAGAGAAAUGCC, the self-cleavage turned out to be 0.31.

For the variant UACGUAGGUGGUCUUCCCCUGAUAGUGCUAAGGGGGCCUGGAAGUUUGGACUGGGCAGAGCUCAACGCAGCGUGGCAAAGUGGCUGUGGCUAGGCUGCCUCUCUGGAUUCCUCGUCACUCAGCAGGGCAUCUCUGAGAGAAAUGCC, the self-cleavage amounted to 0.

As to UACGUAGGUGGUCUUCCCCUGAUAGUGCUAAGGGGGCCUGGAAGUUUGGACUGGGCAGAGCUCAACACAGCGUGGCUAAGUGGCUGUGGCUAGACUGCCUCUCUGGACUCCUCGUCACUCAGCAGGGCAUCUCUGAGAGAAAUGCC, the self-cleavage was 1.88.

As to UACGUAGGUGGUCUUCCCCUGAUAGUGCUAAGGGGGCCUGGAAGUUUGGACUGGGCUGAGCUCAACACAGCGUGGCAAAGUGGCCGUGGCUAGACAGCCUCUCUGGAUUCCUCGUCACUCAGCAGGGCAUCUCUGAGAGAAAUGCC, the self-cleavage was determined as 0.16.

Consider UACGUAGGUGGUCUUCCCCUGAUAGUGCUAAGGGGGCCUGGAAGUUUGGACUGGGCAGAGCUCACCACAGCGAGGCAAAGUGGCUGUGGCUAGACUGCCUCUCUGGAUUCCUCGUCACUCAGCAGGGCAUCUCUGAGAGAAAUGCC, for which the self-cleavage is 0.15.

In the case of UACGUAGGUGGUCUUCCCCUGAUAGUGCUAAGGGGGCCUGGAAGUUUGGACUGGGCAGAGCUCAACACAGCGUGGCAAAGUGGCUGUGGCUAGACUGCCUCUCUGGAUUCCUCGUCACUCAGCAGGGCGUCUCUGAGAGAAGUGCC, the self-cleavage is 2.3.

As to UACGUAGGUGGUCUUCCCCUGAUAGUGCUAAGGGGGCCUGGAAGUUUGGACUGGGCAGAGCUCAUCACAGCGUGGCAAAGUGGCUGUGGCUAGACUGCCUCUCUGGAUUCCUCGUCACUCAGCAGGGCAUCUCUGAGAGGAAUGCC, the self-cleavage turned out to be 0.16.

Turning to UACGUAGGUGGUCUUCCCCUGAUAGUGCUAAGGGGGCCUGGAAGUUUGGACUGGGCAGAGCUCAACACCGCGCGGCAAAGUGGCUGUGGCUAGACUGCCUCUCUGGAUUCCCCGUCACUCAGCAGGGCAUCUCUGAGAGAAAUGCC, the self-cleavage amounted to 0.

As to UACGUAGGUGGUCUUCCCCUGAUAGUGCUAAGGGGGCCUGGAAGUUUGGACUGGGCAGAGCUCAACACAGCGUGGCAAAGUGGCUGUGGCUAGACUGCCUCUCUGGAUUCCUCGUCUCUCAGCAGGGCAUCUCCGAGAGAAGUGCC, the self-cleavage is 2.07.

With UACGUAGGUGGUCUUCCCCUGAUAGUGCUAAGGGGGCCUGGAAGUUUGGACUGGGCAGAGCUCGACACAGCGUGGCAAAGUGGCUGUGGCUAGACUGCCUCUCUGGAUUCCUCGACACUCAGCAGGGCAUCUCUGAGAGAAGUGCC, the self-cleavage worked out at 0.53.

In the case of UACGUAGGUGGUCUUCCCCUGAUAGUGCUAAGGGGGCCUGGAAGUUUGGACUGGGCAGAGCUCAACACAGCGUGGCAAAGUGGCUGUGGCUAGACUGCCUCUCUGGCUACCUCGUCACUCAGCAGGGCAUCUCUGAGAGAAAUGCC, the self-cleavage was found to be 1.71.

On to UACGUAGGUGGUCUUCCCCUGAUAGUGCUAAGGGGGCCUGGAAGUUUGGACUGGGCAGGGCUCAACACAGCGUGGCAGAGUGGCUGUGGCUAGACCGCCUCUCUGGAUUCCUCGUCACUCAGCAGGGCAUCUCUGAGAGAAGUGCC, for which the self-cleavage came to 0.

As for UACGUAGGUGGUCUUCCCCUGAUAGUGCUAAGGGGGCCUGGAAGUUUGGACUGGGCAGAGCUCAACACAGCGUGGCUAAGUGGCUGUGGCUAGACUGCCUCGCUGGAUUCCUCGUCACUCAGCAGGGCAUCUCUGAGAGAAAUGCC, the self-cleavage came to 1.24.

In the case of UACGUAGGUGGUCUUCCCCUGAUAGUGCUAAGGGGGCCUGGAAGUUUGGACUGGGCAGAGCUCAACGCAGCGUGGCAAAGUGGCUGUGGCUAGACUGCCUCUCUGGAUUCCUCGUCACUCAGCAGGGCAUCUCUGAGAGAAACGCC, the self-cleavage was determined as 0.42.

For the variant UACGUAGGUGGUCUUCCCCUGAUAGUGCUAAGGGGGCCUGGAAGUUUGGACUGGGCAGCGCUCAACACAGCGUGGCAAAGUGGCAGUGGCUAGACUGCCUCUCUGGAUUCCUCGUCACUCAGCAGGGCAUCUCUGAGAGAAAUGCC, the self-cleavage was found to be 0.22.

As to UACGUAGGUGGUCUUCCCCUGAUAGUGCUAAGGGGGCCUGGAAGUUUGGACUGGGCAGAGCUCAGCACAGCGUGGCAAAGUGGCCGUGGCUAGACUGCCUCCCUGGAUUCCUCGUCACUCAGCAGGGCAUCUCUGAGGGAAAUGCC, the self-cleavage is 0.84.

Take UACGUAGGUGGUCUUCCCCUGAUAGUGCUAAGGGGGCCUGGAAGUUUGGACUGGGCAGAGCUCUACACAGCGUGGCAAAGUGGCUGUGGCUAGACCGCCUCUCUGGAUUCCUCGUAACUCAGCAGGGCAUCUCUGAGAGAAAUGCC: the self-cleavage worked out at 0.09.

Consider UACGUAGGUGGUCUUCCCCUGAUAGUGCUAAGGGGGCCUGGAAGUUUGGACUGGGCUGAGCUCGACACAGCGUGGCAAAGUGGCUGUGGCUAGACUGCCUCUCUGGAUUCCUCGUCACUCAGCAGGGCAUCCCUGAGAGAAGUGCC, for which the self-cleavage was 0.

UACGUAGGUGGUCUUCCCCUGAUAGUGCUAAGGGGGCCUGGAAGUUUGGACUGGGCAGAGCUCAACGCAGCGUGGCAAAGUGGCUGUGGCUAGACUGCCUCUCCGGAUUCCUCGUCACUCAGCAGGGCAUCUCUGAGAGAAGUGCC: the self-cleavage came out at 0.

Regarding UACGUAGGUGGUCUUCCCCUGAUAGUGCUAAGGGGGCCUGGAAGUUUGGACUGGGCAGAGCUCAACUCAGCGUGGCAAAGUGGCUGUGGCUAGACUGCCUCUCUGGAUUCCUCGCCACUCAGCAGGGCAUCUCUGAGAGAAAUGCC, the self-cleavage came to 0.41.

For UACGUAGGUGGUCUUCCCCUGAUAGUGCUAAGGGGGCCUGGAAGUUUGGACUGGGCAGAGCUCGACACAGCGUGGCAAAGUGGCUGUGGCUAGACUGCCUCUCUGGGUUCCUCGCCACUCAGCAGGGCAUCUCUGAGAGAAAUGCC, the self-cleavage came to 0.57.

For UACGUAGGUGGUCUUCCCCUGAUAGUGCUAAGGGGGCCUGGAAGUUUGGACUGGGCAGAGCUCUACACAGCGUGGCAAAGUGGCUGUGGCUAGACUGCCUCUCUGGAUUCCUCGUCACUCAGCAGGGCAUCUCUGAGAGGAAUGCC, the self-cleavage stood at 1.09.

On to UACGUAGGUGGUCUUCCCCUGAUAGUGCUAAGGGGGCCUGGAAGUUUGGACUGGGCAGAGCUCAACGCAGCGUGGCAAAGUGGCUGUGGCUAGAAUGCCUCUCUGGAUUCCUCGUCACUCAGCAGGGCAUCUCUGAGAGAAAUGCC, for which the self-cleavage is 0.1.

For UACGUAGGUGGUCUUCCCCUGAUAGUGCUAAGGGGGCCUGGAAGUUUGGACUGGGCAGAGCUCAACUCAGCGUGGCAAAGUGGCUGUGGCUAGACUGCCUCACUGGAUUCCUCGUCACUCAGCAGGGCAUCUCUGAGAGAAAUGCC, the self-cleavage turned out to be 0.29.

As for UACGUAGGUGGUCUUCCCCUGAUAGUGCUAAGGGGGCCUGGAAGUUUGGACUGGGCAGAGCUCAACACAGCGUGGCAAAGUGGCUGUGGCUGGACUGCCUCUCUAGAUUCCUCGUCACUCAGCAGGGCAUCUCUGAGAGAAAUGCC, the self-cleavage is 0.04.
